{"source": "the supplement of paper PMC10126150", "note": "Sequences with one replicate were seen in a single cluster, so their values are uncertain.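 Further: ATP exposure 15 min at 22 °C before imaging.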"}
{"system": "ATP", "experiment": "switch fluorescence ratio, 500 uM ATP over buffer (Cy3 cluster intensity, sum of 5 cycles each) (fold (ratio)); higher = stronger signal-on switching upon ATP binding; sequences stand for … in TCGTCGGCAGCGTCAGATGTGTATAAGAGACAGTTTTTTTTTTTTTTTTTTTTTTTTT…TC", "details": "aptamer strand: ATP DNA aptamer (quencher-CACCTGGGGGAGTATTGCGGAGGAAGG + anchor), 100 nM annealed; ATP concentration: 500 uM; one replicate", "method_in_brief": "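Cy3-labelled switching-strand clusters on a modified Illumina MiSeq flow-cell were annealed to 100 nM quencher-labelled ATP aptamer, imaged in selection buffer, then imaged after 15 min with 500 uM ATP at 22 °C. Five buffer/ATP cycles ran, with NaOH stripping and re-annealing between them. The fluorescence ratio is summed target-cycle over summed buffer-cycle Cy3 intensity per cluster, averaged per switch-domain sequence. Clusters outside 100-1000 RFU were excluded.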"}
{"sequence": "GGACGAGACT", "switch fluorescence ratio": 1.1}
{"sequence": "GGACGCACAT", "switch fluorescence ratio": 1.57}
{"sequence": "GGACGCATTA", "switch fluorescence ratio": 1.68}
{"sequence": "GGACGCCTGT", "switch fluorescence ratio": 1}
{"sequence": "GGACGCGCAG", "switch fluorescence ratio": 0.95}
{"sequence": "GGACGCTAAG", "switch fluorescence ratio": 1.01}
{"sequence": "GGACGGGACT", "switch fluorescence ratio": 1.14}
{"sequence": "GGACGGGTAC", "switch fluorescence ratio": 1.46}
{"sequence": "GGACGTCTCG", "switch fluorescence ratio": 1.03}
{"sequence": "GGACTACTGG", "switch fluorescence ratio": 1.05}
{"sequence": "GGACTACTTG", "switch fluorescence ratio": 0.94}
{"sequence": "GGACTCATTT", "switch fluorescence ratio": 1}
{"sequence": "GGACTCCAAC", "switch fluorescence ratio": 1.05}
{"sequence": "GGACTGCAGT", "switch fluorescence ratio": 1.07}
{"sequence": "GGACTGCGCG", "switch fluorescence ratio": 1.05}
{"sequence": "GGACTGGCAG", "switch fluorescence ratio": 0.981}
{"sequence": "GGACTTGAAA", "switch fluorescence ratio": 0.954}
{"sequence": "GGAGAAGATA", "switch fluorescence ratio": 0.99}
{"sequence": "GGAGAATAGT", "switch fluorescence ratio": 1.03}
{"sequence": "GGAGACCGTT", "switch fluorescence ratio": 1.04}
{"sequence": "GGAGACGTAG", "switch fluorescence ratio": 0.938}
{"sequence": "GGAGATATAG", "switch fluorescence ratio": 1.04}
{"sequence": "GGAGATCATT", "switch fluorescence ratio": 1}
{"sequence": "GGAGCATCGT", "switch fluorescence ratio": 1.05}
{"sequence": "GGAGCTAGCT", "switch fluorescence ratio": 0.97}
{"sequence": "GGAGCTATCG", "switch fluorescence ratio": 1.26}
{"sequence": "GGAGGAATCA", "switch fluorescence ratio": 0.985}
{"sequence": "GGAGGACAGT", "switch fluorescence ratio": 0.986}
{"sequence": "GGAGGAGAAA", "switch fluorescence ratio": 1.02}
{"sequence": "GGAGGATTGC", "switch fluorescence ratio": 0.992}
{"sequence": "GGAGGCGATC", "switch fluorescence ratio": 1.04}
{"sequence": "GGAGGGAGC", "switch fluorescence ratio": 0.983}
{"sequence": "GGAGGGATTT", "switch fluorescence ratio": 1}
{"sequence": "GGAGGGTGAT", "switch fluorescence ratio": 1.04}
{"sequence": "GGAGGTCGT", "switch fluorescence ratio": 0.973}
{"sequence": "GGAGGTCTCG", "switch fluorescence ratio": 0.995}
{"sequence": "GGAGGTGCG", "switch fluorescence ratio": 0.999}
{"sequence": "GGAGTAATTA", "switch fluorescence ratio": 1.19}
{"sequence": "GGAGTACACT", "switch fluorescence ratio": 1.03}
{"sequence": "GGAGTATAAT", "switch fluorescence ratio": 0.968}
{"sequence": "GGAGTATCTT", "switch fluorescence ratio": 1.02}
{"sequence": "GGAGTCCTTG", "switch fluorescence ratio": 0.934}
{"sequence": "GGAGTTGCGT", "switch fluorescence ratio": 0.968}
{"sequence": "GGATAAAGTC", "switch fluorescence ratio": 1}
{"sequence": "GGATAACGCC", "switch fluorescence ratio": 1}
{"sequence": "GGATAATTAC", "switch fluorescence ratio": 1.05}
{"sequence": "GGATAATTTC", "switch fluorescence ratio": 0.972}
{"sequence": "GGATACAGCT", "switch fluorescence ratio": 0.976}
{"sequence": "GGATACGCGG", "switch fluorescence ratio": 1.02}
{"sequence": "GGATAGTATT", "switch fluorescence ratio": 0.999}
{"sequence": "GGATATTGTA", "switch fluorescence ratio": 0.989}
{"sequence": "GGATCAAGGC", "switch fluorescence ratio": 1.26}
{"sequence": "GGATCAATAG", "switch fluorescence ratio": 1.27}
{"sequence": "GGATCACCGG", "switch fluorescence ratio": 1.05}
{"sequence": "GGATCAGAGT", "switch fluorescence ratio": 1.04}
{"sequence": "GGATCAGCGA", "switch fluorescence ratio": 0.828}
{"sequence": "GGATCAGTCC", "switch fluorescence ratio": 1.03}
{"sequence": "GGATCATTCA", "switch fluorescence ratio": 1.03}
{"sequence": "GGATCCAAAG", "switch fluorescence ratio": 1.02}
{"sequence": "GGATCCCCAC", "switch fluorescence ratio": 1.23}
{"sequence": "GGATCGATCA", "switch fluorescence ratio": 0.995}
{"sequence": "GGATCGCTGA", "switch fluorescence ratio": 0.964}
{"sequence": "GGATCGCTGG", "switch fluorescence ratio": 1.03}
{"sequence": "GGATCGGGTT", "switch fluorescence ratio": 0.997}
{"sequence": "GGATCTAGAC", "switch fluorescence ratio": 1.02}
{"sequence": "GGATCTGGCA", "switch fluorescence ratio": 1.01}
{"sequence": "GGATGAGGTA", "switch fluorescence ratio": 0.988}
{"sequence": "GGATGGGCAG", "switch fluorescence ratio": 1.01}
{"sequence": "GGATGGGTGA", "switch fluorescence ratio": 0.953}
{"sequence": "GGATGTATCC", "switch fluorescence ratio": 0.97}
{"sequence": "GGATGTCGAT", "switch fluorescence ratio": 0.971}
{"sequence": "GGATGTCTGA", "switch fluorescence ratio": 1.01}
{"sequence": "GGATGTCTTC", "switch fluorescence ratio": 0.985}
{"sequence": "GGATTCGCGG", "switch fluorescence ratio": 1.07}
{"sequence": "GGATTCTTTG", "switch fluorescence ratio": 1.01}
{"sequence": "GGATTGCCTG", "switch fluorescence ratio": 0.94}
{"sequence": "GGATTGGTA", "switch fluorescence ratio": 1.03}
{"sequence": "GGATTGGTCA", "switch fluorescence ratio": 0.967}
{"sequence": "GGATTTAACG", "switch fluorescence ratio": 1.02}
{"sequence": "GGATTTCGTA", "switch fluorescence ratio": 0.991}
{"sequence": "GGATTTGGC", "switch fluorescence ratio": 0.941}
{"sequence": "GGCAAAGGAT", "switch fluorescence ratio": 0.975}
{"sequence": "GGCAAATGGC", "switch fluorescence ratio": 0.995}
{"sequence": "GGCAATGCGG", "switch fluorescence ratio": 1.3}
{"sequence": "GGCAATGGGT", "switch fluorescence ratio": 1.05}
{"sequence": "GGCAATGGTG", "switch fluorescence ratio": 1.04}
{"sequence": "GGCACACGGC", "switch fluorescence ratio": 1.06}
{"sequence": "GGCACCGGGG", "switch fluorescence ratio": 1.01}
{"sequence": "GGCACGGGCA", "switch fluorescence ratio": 1.04}
{"sequence": "GGCACTCCGT", "switch fluorescence ratio": 1.05}
{"sequence": "GGCACTTATA", "switch fluorescence ratio": 1.04}
{"sequence": "GGCAGAGAGT", "switch fluorescence ratio": 0.978}
{"sequence": "GGCAGATTAA", "switch fluorescence ratio": 0.962}
{"sequence": "GGCAGCGACG", "switch fluorescence ratio": 1}
{"sequence": "GGCAGTAGCG", "switch fluorescence ratio": 1.04}
{"sequence": "GGCAGTAGGG", "switch fluorescence ratio": 0.994}
{"sequence": "GGCAGTCGCC", "switch fluorescence ratio": 0.976}
{"sequence": "GGCAGTGGGG", "switch fluorescence ratio": 0.992}
{"sequence": "GGCATAGTTG", "switch fluorescence ratio": 1.02}
{"sequence": "GGCATATGAA", "switch fluorescence ratio": 0.964}
